# The whole screen tested about 310,000 compounds, of which about 2,200 (0.71%) showed an effect of 50% or more. The effect is printed as a negative number. Some of the results follow.
# Molecular target: human ether-à-go-go-related gene (hERG) potassium channel (human, UniProt Q12809)
# Assay: primary screen, population patch clamp on CHO cells stably expressing hERG
# human ether-à-go-go-related gene (hERG) potassium channel, sequence (Q12809 whole entry, looked up): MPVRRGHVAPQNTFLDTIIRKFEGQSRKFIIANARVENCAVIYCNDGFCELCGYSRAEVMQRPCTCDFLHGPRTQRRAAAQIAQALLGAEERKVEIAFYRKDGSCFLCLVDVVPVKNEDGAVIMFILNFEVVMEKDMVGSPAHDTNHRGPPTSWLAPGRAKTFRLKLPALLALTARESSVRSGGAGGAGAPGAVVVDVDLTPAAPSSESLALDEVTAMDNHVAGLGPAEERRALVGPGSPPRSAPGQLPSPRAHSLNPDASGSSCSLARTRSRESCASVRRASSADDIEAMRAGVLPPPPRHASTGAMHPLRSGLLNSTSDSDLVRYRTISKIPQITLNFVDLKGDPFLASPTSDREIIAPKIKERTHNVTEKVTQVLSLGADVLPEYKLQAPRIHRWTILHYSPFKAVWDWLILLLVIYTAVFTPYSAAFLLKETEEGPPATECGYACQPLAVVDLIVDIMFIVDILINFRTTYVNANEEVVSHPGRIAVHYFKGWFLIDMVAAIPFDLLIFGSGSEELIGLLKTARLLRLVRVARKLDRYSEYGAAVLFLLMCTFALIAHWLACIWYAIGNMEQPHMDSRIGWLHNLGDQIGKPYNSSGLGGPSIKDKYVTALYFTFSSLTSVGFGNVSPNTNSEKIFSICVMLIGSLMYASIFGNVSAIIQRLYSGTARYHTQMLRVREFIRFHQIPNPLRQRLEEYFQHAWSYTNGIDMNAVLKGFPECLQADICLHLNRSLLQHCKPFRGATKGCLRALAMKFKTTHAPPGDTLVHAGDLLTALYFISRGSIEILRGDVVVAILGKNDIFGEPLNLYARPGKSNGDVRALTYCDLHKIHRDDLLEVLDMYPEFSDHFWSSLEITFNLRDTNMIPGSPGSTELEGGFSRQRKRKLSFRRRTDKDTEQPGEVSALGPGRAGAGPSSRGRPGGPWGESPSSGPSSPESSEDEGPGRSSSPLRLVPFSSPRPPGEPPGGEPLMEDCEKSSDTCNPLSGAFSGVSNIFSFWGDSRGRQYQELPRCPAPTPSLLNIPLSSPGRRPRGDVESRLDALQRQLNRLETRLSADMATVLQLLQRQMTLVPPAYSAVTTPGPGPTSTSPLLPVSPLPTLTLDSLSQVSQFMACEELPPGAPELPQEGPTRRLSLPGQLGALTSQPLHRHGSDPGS
row,Compound,"hERG current change (%, negative = inhibition) at 1uM [%]"
1,Cc1ccc(-c2nnc(CSc3nnc(COc4ccccc4)n3-c3ccccc3)o2)cc1,7.62
2,CN=Cc1cc(-c2ccccc2)sc1O,10.5
3,CCc1nn(CC(=O)NCCCN2CCOCC2)c(=O)c2cc3sccc3n12,15.6
4,O=C(c1cc(S(=O)(=O)N2CCCC2)c(Cl)cc1Cl)N1CCCC1,13.6
5,CCN(CC)C(=O)Cn1cc(S(=O)(=O)CC(=O)N2CC(C)OC(C)C2)c2ccccc21 (centres unmarked),1.72
6,O=C(O)/C=C/C(=O)c1ccc(O)cc1,10.6
7,O=C(Nc1ccc(C(=O)N2CCCCC2)cc1)Nc1cccc(Cl)c1,16.9
8,CCC1CCCCN1CCCNC(=O)CNC(=O)c1nn(-c2ccc(OC)c(Cl)c2)c(=O)c2ccccc12 (centres unmarked),2.34
9,O=[N+]([O-])c1ccc(Cl)c(C2Nc3cccc4cccc(c34)N2)c1,13
10,N#Cc1c(N)n(-c2ccccc2)c(=O)c2cc([N+](=O)[O-])ccc12,18
11,CCOC(=O)N1CCN(C(=O)c2ccc3c(c2)N(Cc2ccc(C)cc2)CCS3)CC1,14.6
12,Cc1cc(NC(=O)CSCC(=O)Nc2cc(C(F)(F)F)ccc2N2CCCC2)no1,16.5
13,CCN(CCCNC(=O)CCNC(=O)Cn1cnc2ccccc2c1=O)c1cccc(C)c1,7.36
14,O=C(NNC(=O)c1ccccn1)c1cccc([N+](=O)[O-])c1,9.38
15,Cc1ccc(S(=O)(=O)N2CCCC2C(=O)NCc2ccccc2Cl)cc1 (centres unmarked),10.4
16,O=C1C2C3CCC(C3)C2C(=O)N1c1ccc2ccccc2c1 (centres unmarked),10.1
17,COc1ccc(C(CNS(=O)(=O)c2ccc(C)cc2)N2CCN(C)CC2)cc1 (centres unmarked),3.76
18,Cc1nc2ccc(NC(=O)c3ccc(F)c(S(=O)(=O)N4CCOCC4)c3)cc2s1,4.94
19,CCOc1ccc(C2C=C(c3ccc(F)cc3)Nc3ncnn32)cc1 (centres unmarked),3.04
20,O=C(C1CC1)N(Cc1ccco1)c1nc(-c2ccccc2)cs1,4.58
21,O=C(Nc1cccc(Cl)c1)N1N=CCC1c1ccccc1 (centres unmarked),10.9
22,CN1CCN(c2ccc(Cl)cc2NC(=O)c2ccc(S(=O)(=O)N(C)C)cc2)CC1,16.1

row,Compound,"hERG current change (%, negative = inhibition) at 1uM [%]"
1,O=C(CN1CCN(S(=O)(=O)N2CCCCCC2)CC1)Nc1cc(Cl)ccc1Cl,11.2
2,Cc1cccc2cc(C#N)c(N3CCC(O)CC3)nc12,11.9
3,COc1ccc(-c2cc(-c3ccc(Br)cc3)nc3ncnn23)cc1OC,5.18
4,CCc1ccc(N2C(=O)NC(=O)/C(=C/c3cccn3CCOc3ccc(C)cc3)C2=O)cc1,2.08
5,Cc1ccc(-c2nc(N3CCOCC3)sc2C(=O)N2CCCCC2)cc1,6.67
6,CCn1c(SCC(=O)N2CCN(c3ccccc3)CC2)nnc1-c1cc2cc(Cl)ccc2o1,3.45
7,S=C(Nc1cccc(Br)c1)N1CCn2cccc2C1c1cccnc1 (centres unmarked),5.58
8,CCc1nnc(NC(=O)CN2C(=O)N(C)C3(CCCCC3)C2=O)s1,6.94
9,CCCN(C(=O)c1ccc(S(=O)(=O)N2CCCC2)cc1)C1CCS(=O)(=O)C1 (centres unmarked),11.5
10,CCOC(=O)c1c(NC(=O)Cn2cnc3scc(-c4ccc(C)cc4)c3c2=O)sc(C)c1C,-14.2
11,O=C(CCc1c[nH]c2ccccc12)NCc1ccco1,6.23
12,Cc1cc(OCCn2cc(/C(N)=N/O)c3ccccc32)ccc1Cl,8.32
13,Cc1cnc(C(=O)OCC(=O)Nc2ccc(OCc3ccccc3)cc2)cn1,5.72
14,CCCCCCN(C(=O)CCCCCN1C(=O)NC(c2ccc([N+](=O)[O-])cc2)C(C(=O)OCc2ccccc2)=C1C)C(C(=O)NCCCC)c1ccc(OCC(=O)OC)c(C(=O)OC)c1 (centres unmarked),13.6
15,CCOC(=O)C=Nc1c(N)n(C)c(=O)n(C)c1=O,4.39
16,CC(C)Cc1cc(C(=O)Nc2cc(C(F)(F)F)ccc2Cl)no1,9.33
17,CN(C)c1ccc(/C=N/NC(=O)C2COc3ccccc3O2)o1 (centres unmarked),12
18,CCOc1nc(Nc2ccc([N+](=O)[O-])cc2)nc(NC(C)(C)C)n1,6.48
19,COc1cccc2c1Oc1ncccc1N(C(=O)CCC(=O)NCc1ccccc1F)C2,1.82
20,CCOC(=O)C1CCCN(CCC(=O)Nc2cc(OC)ccc2OC)C1.Cl (centres unmarked),4.64
21,Cc1nc(SCc2ccc(C(=O)O)cc2)nc2c1CCCC2,8.98
22,CNC1(C(N)=O)CCNCC1,13.7

row,Compound,"hERG current change (%, negative = inhibition) at 1uM [%]"
1,Cn1nnnc1SCCOc1ccc(C#N)cc1,1.5
2,CCOC(=O)c1c(C)[nH]c(C(=O)COC(=O)[C@H](C)NC(=O)c2ccccc2Cl)c1C,14.1
3,COc1cc2c(cc1OC)C1Cc3ccc(OC)c(OC)c3C[N+]1([O-])CC2 (centres unmarked),14.1
4,CC(c1ccc(F)cc1)n1cc(C(=O)NCc2ccccn2)nn1 (centres unmarked),4.72
5,O=C(O)C1CSC2(c3ccc(F)cc3)CCC(=O)N12 (centres unmarked),14.8
6,CCN(Cc1ccncc1)C(=O)C1CCC(=O)N(Cc2ccc(Cl)cc2)C1 (centres unmarked),-13.9
7,Cc1[nH]c2ccc(F)cc2c1CCN(Cc1cccnc1)C(=S)Nc1ccccc1,6.15
8,COc1ccc(-n2nc(C(=O)c3cccs3)cc(-c3nc4ccccc4[nH]3)c2=N)cc1,5.98
9,Cn1nc(C(C)(C)C)c([N+](=O)[O-])c1C(=O)Nc1ccc(Br)cc1,20.5
10,O=C(Cn1nc(Cl)nc1Cl)c1ccc2c(c1)OCCO2,11.6
11,Cc1cc(C)n2nc(-c3ccccc3)cc2n1,11.7
12,Cc1ccc(F)c(NC(=O)c2ccc(Cn3cc(Cl)cn3)cc2)c1,14.9
13,COc1ccc(-c2nn(-c3ccccc3)cc2/C=C2/SC(=S)N(CCCC(=O)O)C2=O)c(C)c1,20.4
14,CC(C)C[C@H]1CN=C(N(C)C)N1CCCCc1ccccc1,-28
15,COc1ccc(CNC(=O)[C@@H]2CC=C[C@@H]3CCN(C4CCCCC4)C(=O)[C@@H]32)cc1,9.19
16,O=[N+]([O-])c1ccccc1S(=O)(=O)N1CCN(Cc2cc3c(cc2O)OCO3)CC1,25.7
17,CN(C)C(CNC(=O)c1ccc(S(=O)(=O)Nc2cccc(C(F)(F)F)c2)cc1)c1ccco1 (centres unmarked),4.7
18,NC(=S)NNC(=O)C12CC3CC(CC(C3)C1)C2,2.9
19,COc1cccc(CNC(=O)N2CCN(c3ccccc3C)CC2)c1,17.1
20,COc1cc(CCC(=O)Nc2ccc(C)c(S(=O)(=O)N3CCCCCC3)c2)cc(OC)c1OC,1.23
21,CCC(C(=O)NC1CCCC1)N(Cc1ccco1)C(=O)Cn1nnc(-c2ccc(C)cc2)n1 (centres unmarked),-2.45
22,COc1cc(NC(=O)c2ccco2)c(OC)cc1NC(=O)CCC(=O)Nc1cc(C)cc(C)c1,-0.696

row,Compound,"hERG current change (%, negative = inhibition) at 1uM [%]"
1,CC(=O)c1ccccc1NC(=O)C1C2CCC(O2)C1C(=O)O (centres unmarked),-3.11
2,CCc1noc(C)c1C(=O)Nc1nc(-c2ccc(F)cc2)c(C)s1,6.08
3,CS(=O)(=O)c1ccc2nc(NC(=O)CN3C(=O)NC4(CCCC4)C3=O)sc2c1,2.82
4,Cc1cc(C(=O)Nc2ccccc2C(=O)N2CCCCC2)ccc1[N+](=O)[O-],9.31
5,COc1cc(/C=N\NC(=O)c2ccc(-c3ccccc3)cc2)cc(OC)c1O,-4.58
6,COc1ccc(/C=N/NC(=O)c2ccc(CSc3nc(C)cc(C)n3)cc2)c(OC)c1OC,1.65
7,O=[N+]([O-])c1cc(C(F)(F)F)ccc1SCC(O)CO (centres unmarked),-5.64
8,Nc1cccc2nc3ccccc3cc12,-1.5
9,Cc1ccc(CN2C(=O)CSC2c2ccccc2F)cc1 (centres unmarked),12.1
10,Cc1ccc(N(CC(=O)NC(C)(C)C)C(=O)CCC(=O)Nc2nccs2)cc1C,2.16
11,O=C(CSc1n[nH]c(=O)n1C1CC1)NCc1ccccc1Cl,11.4
12,Cn1cnnc1SC(C(=O)Nc1ccc(F)cc1)c1ccccc1 (centres unmarked),4.93
13,O=C(NC(Cc1ccccc1)C(=O)O)C1CCCCC1 (centres unmarked),11.6
14,CSc1ccc(/C=N/n2c(C)cc(C)cc2=O)cc1,4.02
15,Cc1cc(C)n2nc(CC(=O)NC3CCCC(C)C3C)nc2n1 (centres unmarked),10.6
16,O=C(CN1C(=O)NC2(CCc3ccccc3C2)C1=O)Nc1ccc(F)cc1 (centres unmarked),8.54
17,O=C(COC(=O)CNC(=O)c1ccccc1)Nc1ccc(S(=O)(=O)N2CCOCC2)cc1,8.93
18,O=C(Nc1ccccc1C(F)(F)F)N1CCCCCC1,12.5
19,Cc1c(NC(=O)CN2C(=O)NC(C)(c3ccccc3Cl)C2=O)c(=O)n(-c2ccccc2)n1C (centres unmarked),12.9
20,Cc1ccc(Cl)cc1NC(=O)C1CCN(S(C)(=O)=O)CC1,17.7

# — publication PMC4336329 (PLoS ONE, 2015)
